Screen size: about 390,000 compounds; about 150 (0.038%) were called active. This list was built around the results that the source calls inconclusive (neither active nor inactive); the mix of calls is not that of the screen. The call rests on the fitted dose curve; in most records, active means well fitted inhibition curve with a large enough effect; inconclusive means small, poorly fitted or top-dose-only effect; inactive means no such curve, though single readings can be large or run the other way. Potencies of inconclusive entries are doubtful fits and often do not repeat.
Target: Regulator of G-protein signaling 4 (Homo sapiens) (UniProt P49798)
Assay: Inhibitors of Regulator of G Protein Signaling (RGS) 4: qHTS; further: nearly all actives have a fitted effect of over 75% in size
Settings: Transcreener GDP fluorescence polarization, RGS4-accelerated GTP hydrolysis; series mostly up to 114 µM
How it was run: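 MLSMR compounds (23 nl, pin-transferred) preincubated 10 min at room temperature with a 500nM (2x) first reagent, then RGS4 at 900nM (2x) plus Transcreener GDP mix added; fluorescence polarization (620/688 nm) read before and after 90 min at 30 °C.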
Potency means the concentration at half of the fitted maximal effect; tags describe the fitted curve by direction and shape.

Sequence of UniProt P49798 (P49798 whole entry, looked up): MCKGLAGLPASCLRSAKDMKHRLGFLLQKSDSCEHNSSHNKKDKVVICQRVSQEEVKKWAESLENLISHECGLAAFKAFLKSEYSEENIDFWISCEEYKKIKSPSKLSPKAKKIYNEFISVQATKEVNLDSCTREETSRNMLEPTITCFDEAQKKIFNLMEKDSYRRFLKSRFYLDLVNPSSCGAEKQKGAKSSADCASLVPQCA

| Compound | Potency |
| --- | --- |
| Cc1c(C(=O)O)cccc1-c1ccc(/C=N/Nc2ccc(Br)cc2)o1 | inconclusive: 50.1 µM [inhibitor, partial curve, poor fit] |
| Cn1c(SCC(=O)N/N=C/C=C\c2ccco2)nc2ccccc21 | inconclusive: 44.7 µM [inhibitor, partial curve, poor fit] |
| CCC1C(=O)N=C(SCC(=O)Nc2ccc(Br)cn2)NC1=O (stereo unspecified) | inconclusive: 50.1 µM [inhibitor, partial curve, poor fit] |
| CC(Sc1nc2cc([N+](=O)[O-])ccc2n1-c1ccc(F)cc1)C(=O)NCc1ccc2c(c1)OCO2 (stereo unspecified) | inconclusive: 79.4 µM [inhibitor, partial curve, poor fit] |
| Cc1noc(C)c1COc1ccc(C(=O)OCC(=O)NCc2ccccc2Cl)cc1 | inconclusive: 89.1 µM [inhibitor, single point] |
| CC(C)Nc1ccc(C(CC(N)=O)NC(=O)c2ccccc2)cc1[N+](=O)[O-] (stereo unspecified) | inconclusive: 89.1 µM [inhibitor, single point] |
| O=C(COC(=O)c1cc(S(=O)(=O)N2CCc3ccccc3C2)ccc1Cl)NCc1ccco1 | inconclusive: 44.7 µM [inhibitor, partial curve, poor fit] |
| O=[N+]([O-])c1ccc(-[n+]2ccc3ccccc3c2)c([N+](=O)[O-])c1 | inconclusive: 100 µM [inhibitor, partial curve, poor fit] |
| O=C1CCCN1C(=O)COc1ccccc1[N+](=O)[O-] | inactive |
| Cc1nc2cc3nc(C)sc3cc2s1 | inconclusive: 50.1 µM [inhibitor, partial curve, poor fit] |
| NS(=O)(=O)c1cccc(NC(=O)c2cc3ccccc3o2)c1 | inconclusive: 17.8 µM [inhibitor, full curve, poor fit] |
| COc1ccc(S(=O)(=O)N2CCN(CC(=O)Nc3cc(OC)cc(OC)c3)CC2)cc1 | inactive |
| CCOc1ccc(CCNC(=O)c2nn(C)c3c2CSc2ccc(C)cc2-3)cc1OCC | inactive |
| COc1ccc(NC(=O)N2CCN(S(C)(=O)=O)CC2)cc1 | inconclusive: 17.8 µM [inhibitor, full curve, poor fit] |
| Cc1ccc2c(c1)C(=O)C1(O)CCN(c3ccccc3)C1=N2 (stereo unspecified) | inconclusive: 0.0844 µM [inhibitor, full curve, poor fit] |
| CCOC(=O)c1c(NC(=O)C2(C)Cc3ccccc3C(=O)O2)sc2c1CCCC2 (stereo unspecified) | inconclusive: 70.8 µM [inhibitor, partial curve, poor fit] |
| Cc1ccc([N+](=O)[O-])cc1NC(=O)C(C)NS(=O)(=O)c1ccc(F)cc1 (stereo unspecified) | inconclusive: 70.8 µM [inhibitor, partial curve, poor fit] |
| Cc1nnc(C)n1/N=C/c1cccs1 | inactive |
| COc1cccc(NC(=O)c2ccccc2-c2nc(-c3ccc(Cl)cc3)no2)c1 | inactive |
| CCCn1c(-c2ccc(OC)cc2)nc2ccccc21 | inconclusive: 70.8 µM [inhibitor, single point] |
| COc1ccc(NC(=O)CN2CCN(C3c4ccccc4-c4ccccc43)CC2)c(OC)c1 | inactive |
| C/C(=N\N=C\c1cccc(F)c1)c1nnn(-c2nonc2N)c1C | inconclusive: 89.1 µM [inhibitor, single point] |

| Compound | Potency |
| --- | --- |
| Cc1cc(C)c(NC(=S)N(CCN2CCCCC2)Cc2ccco2)c(C)c1 | inactive |
| CCN(CCCNC(=O)COc1cc(=O)n(CC)c2ccccc12)c1ccccc1 | inconclusive: 89.1 µM [inhibitor, single point] |
| CN(C(=S)Nc1ccc(Oc2ccccc2)cc1)c1ccc(O)cc1 | inconclusive: 50.1 µM [inhibitor, partial curve, poor fit] |
| CCOc1cc2c3c(c1)C1(Nc4ccccc4S1)C(=O)N3C(C)(C)CC2C (stereo unspecified) | inconclusive: 79.4 µM [inhibitor, single point] |
| CC(=O)c1ccc(OCc2cc(C(=O)N(C)Cc3ccon3)no2)cc1 | inactive |
| CCOc1cc(C(=O)Nc2ccc(-c3nnc4n3CCCCC4)cc2)cc(OCC)c1OCC | inconclusive: 89.1 µM [inhibitor, single point] |
| Cn1c(SCC(=O)NNC(=O)Cc2ccccc2)nc2ccccc2c1=O | inconclusive: 44.7 µM [inhibitor, partial curve, poor fit] |
| COc1cccc(CN2CC(C(=O)NCCCn3cccn3)CCC2=O)c1 (stereo unspecified) | inconclusive: 89.1 µM [inhibitor, single point] |
| CCc1noc(C)c1C(=O)Nc1ccc(S(=O)(=O)N2CCCCC2)cc1 | inactive |
| Nc1ncnc2c1c(I)cn2[C@@H]1C[C@H](N)[C@@H](O)[C@H]1O | inconclusive: 37.7 µM [inhibitor, single point] |
| O=C(Cc1ccc(S(=O)(=O)N2CCOCC2)s1)Nc1nc2c(s1)CCCC2 | inconclusive: 89.1 µM [inhibitor, partial curve, poor fit] |
| S=C(NCc1ccccn1)Nc1ccc(Cl)c(Cl)c1 | inconclusive: 79.4 µM [inhibitor, partial curve, poor fit] |
| c1ccc(CCNc2ncnc3sccc23)nc1 | inconclusive: 89.1 µM [inhibitor, single point] |
| COC(=O)C1=C(O)/C(=C\c2cc(C)n(-c3ccccc3C)c2C)N=C1C | inactive |
| COc1cccc(NC(=O)NC2CCCCCCC2)c1 | inactive |
| CCn1c2ccccc2c2cc(NC(=O)C(=O)N3CCOCC3)ccc21 | inconclusive: 79.4 µM [inhibitor, partial curve, poor fit] |
| COc1cccc(N2CCN(C(=O)c3ccc4c(Cl)c5c(nc4c3)CCCC5)CC2)c1 | inactive |
| Oc1c(/C=C/C=C/C=Nc2ccccc2)sc(=S)n1Cc1ccccc1 | inconclusive: 28.2 µM [inhibitor, full curve, poor fit] |
| CC(=O)N1CCc2cc(S(=O)(=O)CCC(=O)O)ccc21 | inconclusive: 89.1 µM [inhibitor, single point] |
| CCc1nc(N)c(C#N)c(-c2ccco2)c1C | inactive |
| N=C1SCC(=O)N1/N=C/c1ccccc1 | inconclusive: 50.1 µM [inhibitor, partial curve, poor fit] |
| Cc1cc(N2CCN(C)CC2)nc2ccc(NC(=O)c3ccccc3F)cc12 | inactive |

| Compound | Potency |
| --- | --- |
| COc1ccc(-n2c(=O)c3ccccc3n(CC(=O)NC3CCCC3)c2=O)cc1 | inactive |
| COc1cc(/C=N/N2C(C)CCCC2C)cc(OC)c1O (stereo unspecified) | inconclusive: 50.1 µM [inhibitor, partial curve, poor fit] |
| COCCn1cc(-c2csc(N)n2)c2ccccc21 | inconclusive: 31.6 µM [inhibitor, full curve, poor fit] |
| COc1ccc(-c2csc(NC(=O)CCn3cnc4ccccc4c3=O)n2)cc1OC | inconclusive: 44.7 µM [inhibitor, partial curve, poor fit] |
| COc1ccc(C(=O)N/N=C(/C)c2ccc(N3CCCCC3)cc2)cc1 | inconclusive: 22.4 µM [inhibitor, full curve, poor fit] |
| O=C(/C=C/c1ccc(O)c(O)c1)OCCc1ccccc1 | inconclusive: 0.751 µM [inhibitor, full curve, poor fit] |
| CCOc1ccc(C(=O)COC(=O)c2cc(=O)[nH]c3ccccc23)cc1 | inactive |
| CC(=O)c1ccc(NC(=O)C2CCN(c3nnc(C)c4c(C)n(-c5ccccc5)nc34)CC2)cc1 | inactive |
| Nc1nc(NC(=O)c2ccc(F)cc2)ns1 | inconclusive: 79.4 µM [inhibitor, partial curve, poor fit] |
| Cc1ccccc1CN1C[C@@H]2C[C@@H](c3cn(C)nc3-c3ccccc3)N3CCC[C@@]23C1=O | inconclusive: 79.4 µM [inhibitor, partial curve, poor fit] |
| CCOC(=O)c1nn(-c2ccc(F)cc2)c(=O)c2c(N)scc12 | inconclusive: 100 µM [inhibitor, partial curve, poor fit] |
| CCc1ccc(N=C2NC(=O)/C(=C/c3cc(OC)c(OC)c(OC)c3)S2)cc1 | inactive |
| O=C1NC(=S)NC1=Cc1ccc2c(c1)CCC2 | inconclusive: 28.2 µM [inhibitor, full curve, poor fit] |
| Cc1ccc(-c2nc3sc4c(N)ncnc4c3c3c2CCCC3)cc1 | inconclusive: 100 µM [inhibitor, single point] |
| O=C(Nc1cccc(-c2nc3ccccc3[nH]2)c1)c1ccc(C(=O)Nc2cccc(-c3nc4ccccc4[nH]3)c2)cc1 | inconclusive: 31.6 µM [inhibitor, full curve, poor fit] |
| COc1ccccc1NS(=O)(=O)c1cc(NC(=O)c2ccncc2)ccc1N1CCOCC1 | inconclusive: 50.1 µM [inhibitor, partial curve, poor fit] |
| COC(=O)c1cccc(-c2ccc(C(c3c(C)[nH][nH]c3=O)c3c(C)[nH][nH]c3=O)o2)c1 | inconclusive: 50.1 µM [inhibitor, partial curve, poor fit] |
| CC1CCN(S(=O)(=O)c2ccc(C(=O)Nc3nnc(C4CC4)o3)cc2)CC1 | inactive |
| CCn1c(=O)c2c(nc3n2CCN3c2ccc(OC)cc2)n(C)c1=O | inactive |
| O=C(Nc1ccc(N2CCCCC2)c(C(=O)O)c1)c1ccco1 | inactive |
| COc1ccc(CCNCC(=O)Nc2ccccc2C(F)(F)F)cc1 | inconclusive: 35.5 µM [inhibitor, full curve, poor fit] |
| Cc1ccc2oc(=O)cc(CN3CCN(C/C=C/c4ccccc4)CC3)c2c1 | inactive |

Source: PubChem BioAssay AID504845 (National Center for Advancing Translational Sciences (NCATS), 2011)
